Reference: the supplement of paper PMC11417369
± gives the standard deviation of the averaged measurements. The list shows a part of the results.

The sequences below were run on PfAP2-G AP2 domain (GST-tagged) (assay: gcPBM binding intensity (ln(normalized median fluorescence intensity)); higher = stronger DNA binding).
Outline: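 Probes on an Agilent 4 × 180k array were primer-extended, double-stranded and 36 bp long, taken from intergenic genomic regions, with negative controls added. GST-tagged P. falciparum DNA-binding domains from E. coli, about 25 μg on average, were applied to the array for 1 h in 1× PBS containing 1% milk, 0.2 mg/ml BSA, 0.5% salmon testes DNA and 0.03% Triton X-100. Binding intensity, obtained after Alexa488 anti-GST antibody detection and a 488 nm scan, is the highest Masliner-normalised natural-log median intensity across replicate spots of either probe orientation.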

Row | Sequence | gcPBM binding intensity (ln)
1 | TACCTTATATTATATACACACATATAATATAATATA [CACACA_site1328] | 9.97 ± 0.11
2 | AATTAAAGGAATTACAACTTTGCAAGCGCAACATAA [CACACA_negctrl_site1411] | 9.835 ± 0.021
3 | TTCTTTATATATGTTCGTACATATTATTATAATACA [XGTACX_site1549] | 11.2 ± 0.63
4 | TATTAAAAAATTATATGTACACATTTGTTATATACA [XGTACX_site2232] | 11.6 ± 0.85
5 | ATAAAAAAATAAATAACACACAAAATTACACGAAAA [CACACA_site3620] | 10.01 ± 0.049
6 | TATGTCCATATTTCCACACACATATTATTTTTATAT [CACACA_site3798] | 11 ± 0.67
7 | GTACACATATATATATATATATATATATATATATAT [CACACA_negctrl_site800] | 10.6 ± 0.44
8 | TTTTTTTTTTTTTTTTGTACTCATACATACTATTAT [XGTACX_site989] | 11.3 ± 1.1
9 | AGTAATTATTTTAGAGTGCATAGTTTTTTAATAAAT | 10.1 ± 0.11
10 | AAATATATTTTTAATAGTACAATATGAAAATTTCAT [XGTACX_site2562] | 11 ± 0.63
11 | AAAAAAAAGGAAATAACACACATGTATATATTTATA [CACACA_site1606] | 9.89 ± 0.071
12 | CACCATGTTAACAATACATGCATCACTATATAAATG [TGCATGCA_site36] | 10.2 ± 0.12
13 | TGCCTTATTAAAAGAATTACACATATTTAATCGAAA [GTGCAC_negctrl_site153] | 9.79 ± 0.14
14 | ATTCATAACAAAAAAAGTACTCAAAATAATAATAAA [XGTACX_site6079] | 11.6 ± 0.83
15 | TAATTTTCATGTTCATGTACTTAAATATAAGGTAAA [XGTACX_site3284] | 11.3 ± 0.71
16 | TTTTATTAATATTGCATGCACACTATATAATAATTG [CACACA_site1049] | 10.07 ± 0.085
17 | CGGAAAAATTAAAGCACACAAAAAAAAATAAAAAAA [CACACA_site1133] | 10 ± 0.22
18 | AATATTTCTTTAATTTGTACATATAAGGGAAAATAA [XGTACX_site6221] | 10.9 ± 0.59
19 | AAAAAACATACATACACACACATAAATATTTATATT [CACACA_site7300] | 10.03 ± 0.035
20 | CACAGATAAATTAACACACACACACCGATATATATA [CACACA_site6049] | 10 ± 0.23
21 | TTTTTATTATTTTAAAGTACTCTTTAGTAATTCCCT [XGTACX_site5863] | 11.1 ± 0.76
22 | CTTAGGTGTTCATAGAGTACAAATAAAAAAATAAGA [XGTACX_site2294] | 11.3 ± 0.95
23 | ATATATATTTTAATAACACACATATATTATATTATA [CACACA_site4387] | 9.79 ± 0.11

Row | Sequence | gcPBM binding intensity (ln)
24 | TCATTCTAAATATAAACACACATAAATAAATACATT [CACACA_site5788] | 9.905 ± 0.078
25 | ACGTTACATACATATACACACACATATATATATATA [CACACA_site8203] | 10.2 ± 0.16
26 | TATATATATTATTATGCATGTAATAAAACAAATAAT [TGCATGCA_site625] | 9.855 ± 0.007
27 | GGTGGTGGTGGGTGGGTGCTTCTATTATTATATTAT [GTGCAC_site9391] | 11.3 ± 0.61
28 | GATGTTTCTATTTTAGTGCATTTTAAATAAATAAAT | 10.1 ± 0.26
29 | ATTTCTTCTTTTTTTGTGAAACTGGAATATATATAT [XGTACX_negctrl_site527] | 10.1 ± 0.18
30 | ATAAAGAAACATATATGTACTTATATATATATATAT [XGTACX_site5625] | 11.3 ± 0.95
31 | TTCTATATTATATATGCATGTGTTATTCTTATTTTC [TGCATGCA_site92] | 9.87 ± 0.057
32 | ATATAATATTAGTGCACACACAAAAATGTACTAAAC [CACACA_site632] | 11.2 ± 0.79
33 | TATTATTTATTATATGCACACATCGAACTATTATTT [CACACA_site2544] | 10.1 ± 0.18
34 | TATTCGAAAGAATAGGCATGCAAACATATCTTATTA [TGCATGCA_site147] | 9.86 ± 0.11
35 | ATATATATTATATGCACACTTATATTTCATTAGATT [CACACA_site2599] | 9.855 ± 0.007
36 | TCATCATATTATATATGTACATATATAATAATTTAT [XGTACX_site1625] | 11.2 ± 0.71
37 | AAATAATTAAAAAAAAGTACACATGTGACTACATAT [XGTACX_site8767] | 11.4 ± 0.71
38 | ATTGTATCTGTATATGCACACAATATCTGTACTTCT [CACACA_site5445] | 11.3 ± 0.89
39 | AAATAAAGCACACCGACACACACATATATATATATA [CACACA_site8256] | 10.2 ± 0.18
40 | TATATATATGTATACACACATACAAATATGTAAAAA [CACACA_site3720] | 10 ± 0.12
41 | TTTCAATACTGAAACTGTACTTGTTTTACTTCTATT [XGTACX_site5924] | 11.5 ± 1.1
42 | CGAAATCATATGTACACACACATATATATATATATA [CACACA_site2151] | 11.5 ± 1.1
43 | TTATAATTTTTTTTTGCATGTGGGTTTTTTTTTGTT [TGCATGCA_site968] | 9.94 ± 0.15
44 | TTTTTTCTCTATATATGTACATATAAAAAATATATC [XGTACX_site6382] | 11.3 ± 0.81
45 | GTTACACAAACAAACACACACACACGCACGCACAAA [CACACA_site7191] | 10.3 ± 0.22
46 | ATGAGTATACTAAGAACACACAAGTTACTTGGTGTT [CACACA_site4981] | 9.9 ± 0.14

Row | Sequence | gcPBM binding intensity (ln)
47 | TAAAAAAAAAAAATGTGTACATATTATATATATCTT [XGTACX_site2615] | 11.5 ± 0.76
48 | TATAACAAGTAATGTTGTACATTATATTATGTAATA [XGTACX_site2769] | 11.1 ± 0.84
49 | TTTTTTATTATTATGTGTACGAATATGTGCATATAA [XGTACX_site1364] | 11.1 ± 0.69
50 | CATATTATTTAAACATGTACTCACATATAAATATAA [XGTACX_site6096] | 11.4 ± 0.98
51 | ATTTTATAATTTATATCACACACATATATATATAGT [CACACA_site7885] | 10.2 ± 0.18
52 | TGTTTATAAATATAAAAAAATATATATATATATTAT [GTGCAC_negctrl_site247] | 9.47 ± 0.11
53 | GGTTACATTTTATTTTGTACATAAAAATTTTTATTT [XGTACX_site218] | 11.1 ± 0.53
54 | GTATTATATATAAAAGTGCATATTTTTTTCCCTTAC | 10.2 ± 0.18
55 | CAAAATTAATAAGTCACACACACATCTATAATATAT [CACACA_site6519] | 10.1
56 | TTCTTTATTTTTTCTACACACATTAGATATTCAAAG [CACACA_site7624] | 10.1 ± 0.13
57 | ACCATAACATGAATTACAGGAATTGAAAATGTTCCA [CACACA_negctrl_site649] | 9.96 ± 0.3
58 | TATATATATATATTCACACATAAGATGAATAAAGTG [CACACA_site4225] | 10.3 ± 0.38
59 | AAAAAAAAAATACATACACACACACCCACCCATATA [CACACA_site9187] | 10.5 ± 0.22
60 | TGTCCCCCTTTCTATGCACACTTTAAATTATTCAAA [CACACA_site4200] | 11.4 ± 0.86
61 | TATTAAAAGTAAAAAACACACATGGATAAATACATA [CACACA_site6048] | 10.03 ± 0.092
62 | ATATTTAGAATGTTCCTACACACCAAATTTAAGTGG [CACACA_site2346] | 10.2 ± 0.18
63 | TTTATTTTACAAAAAAGTACAAGAAGAAATATCAAT [XGTACX_site7812] | 11.3 ± 0.89
64 | TCAATATACCAAAAATGTACAAAAAATAAACAATAT [XGTACX_site8251] | 10.8 ± 0.49
65 | GAACATTTCACATGGTGTACTCTCTTTTTCAAATAA [XGTACX_site1632] | 11.6 ± 1.1
66 | AATGATATATTATAAACACACAAAGATGGATATATA [CACACA_site7349] | 9.87 ± 0.13
67 | TTATATATAAATGAAAGTACAAAACAGGAAAGAATA [XGTACX_site1076] | 11 ± 0.49
68 | ATATATAATATATGTGGTACGCAAAATATTATATTA [XGTACX_site4969] | 11.4 ± 0.95
69 | AATACACGCAAACACACACACACACCCACATATATA [CACACA_site638] | 10.3 ± 0.2

Row | Sequence | gcPBM binding intensity (ln)
70 | AAAACACAATTTATTACACACATATATTATATATTA [CACACA_site1420] | 9.86 ± 0.057
71 | ATGAATGAATAAAGAAGTACGGAAATATTAACAAAA [XGTACX_site4695] | 11.2 ± 0.67
72 | TTCTTCTGTTTTATTACACACCATTTTGTGTCTACA [CACACA_site8643] | 10.2 ± 0.17
73 | CTCTATATATTATTATGTACTAAATGTATGTATGTA [XGTACX_site7151] | 10.9 ± 0.48
74 | ATAACATACATAACAACACACAATATTTATCTGTAT [CACACA_site4279] | 9.96 ± 0.24
75 | TTCATTCAAATCCAAGCATGCTTTATTAAAAAATTA [TGCATGCA_site567] | 9.84 ± 0.26
76 | ATATATAATTCCCAAGTGCATTTATTTTAATTATTA | 9.945 ± 0.007
77 | TGTGAAATAAAATTTGTACACACATATATATATATA [CACACA_site8093] | 11.1 ± 0.73
78 | TACGCCTATAACGGCTGTACACCTTACTTTTTTTAA [XGTACX_site6818] | 11.5 ± 0.79
79 | TATGATTTTTATATATGTACGTATGGTGTTTTACAA [XGTACX_site6100] | 11.3 ± 0.53
80 | AATAAATTTCAAAATTGTACTCATTTCCTTTCCCAA [XGTACX_site5887] | 11.4 ± 0.93
81 | ATATATATATATATATGTACACATATATTTCTTTTC [XGTACX_site3443] | 11.4 ± 0.91
82 | ATAAAATTTTATATGGGTACATAATATAATATATAT [XGTACX_site8160] | 11.4 ± 0.67
83 | AAAAAAAAAAAAAGTGCACACGATTTAAGGCCTATA [CACACA_site2823] | 10.7 ± 0.6
84 | ATTCCTGGACCGTTCATGCACTTGCAGAACGTCCAT | 10.7 ± 0.34
85 | TTTATGAAATGTTGCACACAAAAAACAACATGTTTT [CACACA_site1440] | 10.2 ± 0.21
86 | AAATGATATAAATTATAAAATGGATTTTTTCCATTG [CACACA_negctrl_site420] | 9.41 ± 0.27
87 | TTTAAAAATTAATTCTGTACACATTTTTATTATATT [XGTACX_site4212] | 11.5 ± 0.81
88 | TAAGTTTGTCAATCAACACACACCTATTTATTATAT [CACACA_site3919] | 10.1 ± 0.085
89 | CACTTTAATTTATGCACACATATGGAACAACAGCCA [CACACA_site994] | 10.5 ± 0.33
90 | CTTAAAATGATAATATGTACACATAAATAATATATA [XGTACX_site8330] | 11.5 ± 0.76
